# ± gives the standard deviation of the averaged measurements. The list shows a part of the results.
# Test system: PfAP2-I AP2 domain 3 (GST-tagged)
# Experiment: gcPBM binding intensity (ln(normalized median fluorescence intensity)); higher = stronger DNA binding
# Outline: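 Probes on an Agilent 4 × 180k array were primer-extended, double-stranded and 36 bp long, taken from intergenic genomic regions, with negative controls added. GST-tagged P. falciparum DNA-binding domains from E. coli, about 25 μg on average, were applied to the array for 1 h in 1× PBS containing 1% milk, 0.2 mg/ml BSA, 0.5% salmon testes DNA and 0.03% Triton X-100. Binding intensity, obtained after Alexa488 anti-GST antibody detection and a 488 nm scan, is the highest Masliner-normalised natural-log median intensity across replicate spots of either probe orientation.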
row,Sequence,gcPBM binding intensity (ln)
1,ATATGTTCCGAAGGTTGTACACACATAGAAATATAC [XGTACX_site8227],8.23 ± 0.71
2,AAAATATATACAATATGTACATATATATATATATAT [XGTACX_site1898],9.35 ± 0.38
3,AAAAGGAAAAATATCACACATATATATATATATATA [CACACA_site5586],9.57 ± 0.48
4,ATTATTATACACAAATGTACATGTGAATTTTTTTTC [XGTACX_site6982],7.95 ± 0.39
5,AATAAGTAACAAAATACACACATATAGGTAATTATA [CACACA_site6949],7.62 ± 0.59
6,ATATATATTTATAGGTGTACAAAATACTATTTTAGG [XGTACX_site8499],7.84 ± 0.45
7,AACTGATATTAATTCTGTACCTATACGTTATATGTT [XGTACX_site1003],7.73 ± 0.62
8,TATGAACATATATATTGTACAAAATTATAATTTCAA [XGTACX_site6406],7.58 ± 0.38
9,AAGCGAATCTATATCACACACAAAAAAATCAGACTA [CACACA_site7072],7.63 ± 0.57
10,AGTTCAGAATTGAATAGTACATAAATATAACAAAAT [XGTACX_site650],7.91 ± 0.65
11,TATATATATTCTTTGTGTACTCATATAAGGGTAGAA [XGTACX_site8121],8.16 ± 0.29
12,TTTTTAGAAAAGGTTATAAAAAATTAATTGAAAAAA [GTGCAC_negctrl_site289],7.68 ± 0.54
13,AATCAATATTATATATGTACTTATTTTCACTTTTGC [XGTACX_site1775],7.81 ± 0.47
14,TTGTCATTATTATATTGTACAATAAGTATTAAAGAA [XGTACX_site1205],8.01 ± 0.57
15,AATAAACAAATAAATAAATAAACAGATAAATAAATC [CACACA_negctrl_site920],7.71 ± 0.69
16,GAGAACATTGATACACGTACATAAGTTATAAGTATT [XGTACX_site7665],7.89 ± 0.47
17,AAGCATCCTACTGATTGTACATATATATATATATAT [XGTACX_site2150],9.54 ± 0.13
18,TAATATATATAACAAGTGCAAAAAAATATAGATATT [GTGCAC_site9625],9.38 ± 0.33
19,TTAGGTTATAAATACACACACAAAAGAAAAAAAAAA [CACACA_site5625],8.06 ± 0.61
20,TATTTAAATTAATATTGTACATATATTTATAATATA [XGTACX_site6109],7.52 ± 0.3
21,TTTATTTATATAATTACACACATATATACACAAATG [CACACA_site8903],7.81 ± 0.55
22,AAATATATTATATATGCATGCGCCAAGATTTATATA [TGCATGCA_site770],7.75 ± 0.38

row,Sequence,gcPBM binding intensity (ln)
1,AAAAATAAATATACATGTACATAATAATAATATATA [XGTACX_site8359],7.66 ± 0.099
2,TTTGAAAAAAAATATTGTACACGTGAATAAAGTATT [XGTACX_site644],8.14 ± 0.6
3,TTGCATCTATTTTTGAGTACACAATGAGAATAATTA [XGTACX_site7171],8.03 ± 0.31
4,TTAAAAAAGTAATTAACACACAATAATGTAATGCAT [CACACA_site4176],8.18 ± 0.55
5,AAAAAAAAAAGACACACACACACATACACATACATA [CACACA_site7362],7.96 ± 0.29
6,TATATATATATATATATATATATATATATAATTTGA [XGTACX_negctrl_site3],8.88 ± 0.46
7,ACCCAAAATATATTCACACAAAAAATATTAAAAATA [CACACA_site5433],7.72 ± 0.26
8,TTTTTTTTTTTTTGAACACACATTATTAACTTTTAT [CACACA_site6281],8.07 ± 0.78
9,CGCGAACATACATACACACACATATATATATATGTA [CACACA_site205],7.84 ± 0.52
10,AAAAAAAAGTTATATACACACATATAAATATAAATA [CACACA_site6683],7.65 ± 0.49
11,TATATATTTTATATATGTACATATTTATATGTTTCT [XGTACX_site1818],7.57 ± 0.057
12,AAAAATATTAAAAGGCGTACAATACCTGTATGCAAC [XGTACX_site6069],7.97 ± 0.47
13,CATGTAAAATATTAAAGTACATGATTATATATATAT [XGTACX_site7486],9.11 ± 0.16
14,TATATTTATATAATATGTACATATTTTTTAATATTT [XGTACX_site3834],7.55 ± 0.19
15,TATTTTATTTTCCGAAGTACAAAAGCAAAAAAAAAC [XGTACX_site103],8.36 ± 0.35
16,AGCTAAAATATTTTTGCACACGATTTTTTTTTTTTT [CACACA_site1140],8.79 ± 0.57
17,ATAATATGAGTCCCACAAAATAGACCATACGAATAT [CACACA_negctrl_site50],7.88 ± 0.36
18,TATAAATTTATACCAGTGCATTTTGAAATATATATA,9.47 ± 0.057
19,TGGAACCATAAAAAGTGTACACATATAAAAAATATG [XGTACX_site96],8.1 ± 0.35
20,ATTTTAATTTTGTATACACACATTTGAATTATTAAT [CACACA_site3528],7.65 ± 0.61
21,AAATAATACATTCGTACTACACATATATATTAAATA [XGTACX_site7806],7.84 ± 0.41
22,TAAAATGTTATAAGAACATGCAATTCCTTTTATTAT [TGCATGCA_site408],7.53 ± 0.69

row,Sequence,gcPBM binding intensity (ln)
1,AATATATACATATATACACACACATATATATATATA [CACACA_site8907],9.22 ± 0.55
2,ATATATTATATTATATGTACTTAAAAAAGTGCAAAG [XGTACX_site318],8.485 ± 0.035
3,TATATTCAATTTTTGGTGCGTAAATTAATACAAACA [GTGCAC_site9764],10.2 ± 0.45
4,TATATGTCCATATTTCCACACACATATTATTTTTAT [CACACA_site9266],7.88 ± 0.73
5,TTTTTTCAATAAATAATCGTATATTGAATAATAATA [CACACA_negctrl_site822],7.3 ± 0.61
6,AGAGAGAACGGTATAACATGCGATAAATTTTAGAAG [TGCATGCA_site357],7.54 ± 0.86
7,ATGCACGGAAAAATATGTACTTAATTTCAATAATAT [XGTACX_site8311],8.62 ± 0.7
8,CGGACATACTAACGGACACACGTAAGAAAAAAAAAG [CACACA_site4504],7.79 ± 0.58
9,TATTAATTTTTCCTTTTTTTTTTACCCCTTTGTACA [CACACA_negctrl_site947],7.81 ± 0.57
10,TACACTAATGACAGTTGTACTTTTATTCGATAGAAT [XGTACX_site738],7.55 ± 0.47
11,TATATATATATAATATGTACATATATACATGCCTTG [XGTACX_site2791],8.9 ± 0.41
12,TCGAAAATGACGAATGGTACAGTATGTATAAAAATA [XGTACX_site1258],7.75 ± 0.56
13,ACTTTTTTTTTGTGTGTGCACTCGATTATATACATA [GTGCAC_site9846],10.37 ± 0.092
14,TCAAAATTGCTTTGTTGTACTAATAAAATTTATTAC [XGTACX_site1121],7.67 ± 0.49
15,TATATATACATACGTACACACAAATATTAAAATATA [CACACA_site1951],8.11 ± 0.092
16,TATCTGTAAACATATTCACACACATAAATTCGCATA [CACACA_site8557],7.71 ± 0.57
17,GTTATATATGATGGAAGCACTTGGAAGAGGGAAATA [CACACA_negctrl_site1831],8.19 ± 0.49
18,GATAAATATTTAATATGTACATATATTATATATATA [XGTACX_site117],8.51 ± 0.32
19,TATATACACACCGTGTGTACATATACATTAACTGAA [XGTACX_site7120],8 ± 0.25
20,AAAAATAAAAAAATAAAAAATAAAAAAATAAAAAAT [CACACA_negctrl_site1425],7.46 ± 0.7
21,ATATATTATATATGCGCACACACGAATTTTTTTTTT [CACACA_site2393],8.46 ± 0.53
22,ATTAAAGTTATAAATTCACACATGTAAATGTATTTA [CACACA_site5279],7.47 ± 0.5

row,Sequence,gcPBM binding intensity (ln)
1,ATATATATATGTATGTATATATATATATATATGTTT [CACACA_negctrl_site248],9.03 ± 0.64
2,TTTCTTTTTTTTTGAAGTACATAAAAATATAAAAAA [XGTACX_site311],8.03 ± 0.085
3,TAAATTTTTTCTTTTTGTACATATTTTAAAAATGTT [XGTACX_site7526],7.69 ± 0.64
4,AATATTATAAAATATTGTACTTAAAAAATTATTAAA [XGTACX_site2469],7.44 ± 0.34
5,AAAAAGAAAAAGAGCACACAAAAATATTTAACCTTT [CACACA_site2747],7.89 ± 0.6
6,ATGGCATAAATATATGCACACACAAAAAAAAAAAAA [CACACA_site7902],8.98 ± 0.11
7,AAAAATATAAATGACACACACTTAAAAACAAAGAAA [CACACA_site4540],7.71 ± 0.66
8,ATTTAAAAAAAAAAAAATAAATAACTTGAAAAACAA [GTGCAC_negctrl_site318],7.35 ± 0.71
9,CTTATATATACGTGCACACATATATATAAGATATAT [CACACA_site1752],11.03 ± 0.11
10,AAGGATAATAGGTACACATGCAATATTCATATATAC [TGCATGCA_site523],8.09 ± 0.54
11,TTTCACACTATTTCATGTACACATAAAATTATATAT [XGTACX_site8692],8.34 ± 0.42
12,TAAATATAATAAAAGTGTACTTACACTTACATATAA [XGTACX_site1206],7.61 ± 0.38
13,ATATAATAAGGTTAAGCACACATATTACATATATAA [CACACA_site9110],8.35 ± 0.23
14,TTGTATATATTTCCTTGTACGTAATAATTCTTATTG [XGTACX_site3938],7.96 ± 0.73
15,AACAGATAAAAGGGTACACACATATATACATGTACA [CACACA_site225],7.66 ± 0.4
16,TTTTATTCCGTTTCAAAATAAGAAAAAAAAAAAAAT [CACACA_negctrl_site1199],7.73 ± 0.52
17,TACTTCTCATTTGTTGTTGTATTTTAGGCATACCCT [XGTACX_negctrl_site385],7.78 ± 0.74
18,TTTTATTTATCATACACACACAGAAAAAAAAAAAAA [CACACA_site158],8.14 ± 0.55
19,CCTTTCCTTTTATAAGTGCATATAACAAATGTATAC [GTGCAC_site9872],10 ± 0.11
20,GAATGTTTATTATATGCATGTTATATATATGAATAT [TGCATGCA_site4],7.7 ± 0.48
21,AATAATGAAAAATCAAATAACCTAAATTACAACTGT [XGTACX_negctrl_site65],7.62 ± 0.54
22,TCAAAAGAAATAAAAACATGCATAAAAGTAAAAATA [TGCATGCA_site832],8.03 ± 0.84

# — the supplement of paper PMC11417369
